Reference: ChEMBL document CHEMBL4888484, “Replenishing the malaria drug discovery pipeline: Screening and hit evaluation of the MMV Hit Generation Library 1 (HGL1) against asexual blood stage Plasmodium falciparum ,using a nano luciferase reporter read-out” (2022)
About 540 (0.36%) of roughly 150,000 compounds showed an effect of 50% or more. Some of the results follow.

System: Plasmodium falciparum
Assay: Primary screen in NF54 nanoGlo assay, in single point, at 2uM, 72h; a lower Z score goes with more inhibition
Assay type: functional, Erythrocyte
Conditions: timepoint 72 hour

SMILES	% Inhibition [%]	Z score
Fc1ccccc1N1CCN(Cc2csc(-c3cccs3)n2)CC1	-32	3.7
CCc1ncsc1C(=O)Nc1cc(C(N)=O)ccc1CN(C)C	-15	2.08
Cc1ccc(NC(=O)c2c(C)oc3nc(C)nc(N4CCCC4)c23)cc1	-14	2.46
Cc1nccc(CNC(=O)c2cc(C(C)C)ccc2O)n1	-3	0.42
CCNC(=O)NCc1ccc([C@H](O)c2ccccc2)s1	-12	1.59
CC[C@@H]1Oc2ccc(S(=O)(=O)N3CCN(C(=O)Cc4ccc(OC)cc4)CC3)cc2NC1=O	-16	1.62
Cc1nc(N2CC3(CCCO3)C2C2CC2)c2cc[nH]c2n1 (stereo not drawn)	-5	0.9
C[C@@H](CO)NCc1cc(C2CCN(C(=O)OC(C)(C)C)CC2)no1	-7	0.82
CN=C(NCc1ccccc1Cl)NC1CC1	3	-0.56
c1ccc(-c2nnc(COc3ccc4c(c3)OCO4)o2)cc1	-1	0.11
Nc1cc(-c2ccccc2CN2CCOCC2)ccn1	-10	1.68
Cc1nc2n(c1CN1CCN(C(=O)c3ccon3)CC1)CCCC2	-13	1.89
CN(C)c1ccc(CNC(=O)c2cc3n(n2)CCCN(Cc2ccc(F)cc2)C3=O)cc1	-10	0.98
CCOC(=O)N[C@H](CNC(=O)c1ccc(F)cc1Br)CC(C)C	5	-0.71
CN1CCN(C(=O)c2ccn(C)n2)C[C@@]12CCC(=O)N(CC1CC1)CC2	-1	0.16
CC(C)C(=O)N1CCCN(S(=O)(=O)c2cccs2)CC1	-7	1.11
CCCc1cc(C(=O)N2CCNC[C@H]2C(=O)Nc2ccc(C)nc2)ccn1	-15	1.48
Cc1ccsc1CCC(=O)NCCOCCN1C(=O)CCC1=O	-9	1.47
CC(C)(C)c1ccc(N2CCC(NC(=O)c3ccc(C(N)=O)nc3)CC2)cc1	-7	0.89
CN(C)c1ccc(C=C(c2nnnn2-c2ccccc2)c2nnnn2-c2ccccc2)cc1	0	0.06
Cc1nc(C(C)C)sc1C(=O)N(Cc1ccccn1)Cc1ccco1	-11	1.62
Cc1nc(O)c(C(=O)N2CC[C@H](OCCC(C)C)C2)cc1Br	17	-1.87
COc1ccc2[nH]c(CNC3CCN(c4ccccc4F)CC3)cc2c1	-17	1.58
CN1CCCN(c2ccc(NC(=O)N[C@H]3CCc4cc(F)ccc43)cc2F)CC1	0	-0.01
COc1ccc2c(c1)N1CCN(c3ccccc3F)CC1C(C(=O)NC1CC1)C2 (stereo not drawn)	-9	1.16
Cn1ccnc1-c1nccn1-c1cccc(-c2cnc[nH]2)c1	0	-0.05
O=C(COc1ccc(CCO)cc1-n1nc2ccccc2n1)N1CCCc2ccccc21	5	-0.69

SMILES	% Inhibition [%]	Z score
CC1(C)CC(N2CC(O)=C(c3nc4ccccc4s3)C2=N)CC(C)(C)N1	10	-1.2
Cc1nn(C)c2nc(NCCCN3CCC[C@H](C)C3)sc12	-14	2.46
O[C@@H](COCc1ccccc1)Cn1ccnc1-c1cccnc1	3	-0.48
Cc1ncoc1C(=O)NC(C)(C)CC1CCCCCC1	-18	1.93
CN1CCN(c2ccc(F)cc2C(=O)NCc2ccc3cnn(C)c3c2)CC1	36	-4.09
CCOc1ccc(CN2C(=O)CC[C@@]2(C)C(=O)NC2CCCCCCC2)cc1	-12	2.02
Cn1cccc1C(=O)C(=O)NCc1ccccc1	-3	0.23
Clc1ccc2nc(-c3ccco3)c(Nc3ccc4c(c3)OCCO4)n2c1	-16	1.56
O=C(NCCN(CCOCCO)C(=O)C1CC=CC1)C1CC=CC1	-3	0.41
CCOc1cc(CNC(=O)C2CCN(c3nc4ccccc4[nH]3)CC2)ccc1OC	3	-0.5
CN(C)c1ccc(CNC(=O)c2nnn(-c3ccccc3Cl)c2-c2ccccn2)cc1	-14	1.65
CO[C@@]12CC[C@@H](NC(=O)c3cc(C)on3)C[C@@H]1N(C(=O)c1cnc[nH]1)CC2	-9	1.17
CN(Cc1ccc(Cl)cc1)Cn1nc([C@H]2CCS(=O)(=O)C2)oc1=S	-9	1.74
COc1ccc(OC[C@@H](O)CN2CCC(O)CC2)c(CNCc2ccccc2C)c1	18	-3.45
COc1ccc2c(C)c(C(=O)N3CCN(Cc4ccccc4)CC3)oc2c1	-11	2.11
Cc1ccc(Cc2ccccn2)cc1NC(=O)N1CCCC1	-3	0.25
COc1ccc(NS(=O)(=O)[C@H]2CCS(=O)(=O)C2)cc1	2	-0.4
CCOc1nc(N2CCC[C@@H]2C(=O)O)ncc1Cl	-2	0.32
COc1ccccc1N1C(=O)C2C(C1=O)C1(C)CC2(C)CC1=O (stereo not drawn)	-10	1.38
O=C(c1c[nH]c2ncc(Br)cc12)C1CC1	12	-1.6
O=C(OCC(=O)N1CCN(Cc2ccccc2)CC1)c1nccc2ccccc12	45	-6.07
O=C(NCCc1ccncc1)c1cccc2[nH]cc(CN3CCCC3)c12	7	-1.01
CCCN1N=C(C(=O)N2CCOCC2)S(=O)(=O)c2cc(Cl)ccc21	-7	0.92
COCCN1C(=O)c2ccc(C(=O)NCc3ccncc3)cc2C1=O	-3	0.39
CN1CC(=O)Nc2cc(C(=O)N3CCOC[C@@]3(C)C3CC3)cnc21	-8	1.72
CCCC1CCN(C2CCN(C)C2=O)C1 (stereo not drawn)	-4	0.41
CC[C@H](NC(=O)[C@H]1CC[C@@H](O)CC1)c1ncccc1C	-24	2.75
